Among all 410,000 compounds or so, about 1,200 (0.29%) were called active. Inconclusive results, whose numbers are uncertain, are shown with a selection of clear calls. Calls come from the whole dose curve; as a rule, active = well fitted activation curve with a large enough effect; inconclusive = small, poorly fitted or top-dose-only effect; inactive = flat fitted curve, though single readings scatter. Potencies beside an inconclusive call are fits to weak or partial responses and may not hold up.
Test: qHTS of Nrf2 Activators; note: nearly all actives have a fitted effect of over 65% in size
Details: AREc32 ARE-luciferase reporter (MCF7-derived line), luminescence, 24 h; series mostly up to 46.1 µM
Outline: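 AREc32 cells carrying an ARE-driven firefly luciferase, 1000 cells/well in OPTI-MEM with 5% FBS, dosed after overnight attachment and incubated 24 hr at 37 deg C. Steady-Glo luminescence read after 30 min at RT.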
Potency is the fitted concentration of half-maximal effect; tags give direction and shape of the fitted curve.

SMILES	Potency
CC1CN(c2oc(-c3ccco3)nc2C#N)CC(C)O1 (stereo not drawn)	inconclusive: 12.6 µM [activator, partial curve, poor fit]
N=C1/C(=C\c2ccc(SCc3ccco3)o2)C(=O)N=C2SC=NN12	inconclusive: 35.5 µM [activator, single point]
CN1C(=O)C2(Oc3ccccc3C3CC(c4ccccc4)=NN32)c2ccccc21 (stereo not drawn)	inconclusive: 17.8 µM [activator, single point]
CCN1CSC(=S)N(Cc2ccc(OC)cc2)C1	inconclusive: 31.6 µM [activator, single point]
COc1cc(OC)c(OC)cc1/C=C/C(=O)c1ccc(NS(=O)(=O)c2ccc(C)cc2)cc1	inactive
COc1cccc(C(=O)NC(=O)Nc2cc(C)on2)c1	inactive
CCS(=O)(=O)c1ccc2oc(SCC(=O)c3ccco3)nc2c1	inconclusive: 17.8 µM [activator, single point]
CC(=O)N(/N=C1\Sc2ccccc2C1=O)c1ccc(C)cc1C	inconclusive: 3.16 µM [activator, partial curve, poor fit]
O=C(N/N=C/C(Cl)=C/c1ccccc1)c1ccc2c(c1)OCO2	inconclusive: 17.8 µM [activator, single point]
O=C(/C=C/Sc1ccccc1)c1ccc(Cl)cc1	inconclusive: 3.98 µM [activator, partial curve, poor fit]
O=[N+]([O-])c1ccc(/C=C2\CCC(C3=CCCC3)=C2N2CCOCC2)cc1	inconclusive: 25.1 µM [activator, single point]
O=C1/C(=C/c2cccnc2)SC(=S)N1Cc1ccco1	inconclusive: 17.8 µM [activator, single point]
CC(=O)N1c2ccc3ccccc3c2C(C)CC12CCCCC2 (stereo not drawn)	inactive
CCSc1ncc(Cl)c(C(=O)Nc2ccccc2C)n1	inconclusive: 10 µM [activator, partial curve]
Cc1oc(C(=O)O)cc1COc1ccc2c(C)cc(=O)oc2c1	inactive
COc1ccc(OC)c(-c2nnc(-c3ccc(C)o3)o2)c1	active: 11.2 µM
CCOc1ccc2c(c1)C(C)=CC(C)(C)N2	inconclusive: 20 µM [activator, single point]
FC(F)(F)COc1nc(N2CCOCC2)nc(N(c2ccccc2)c2ccccc2)n1	inactive
Cc1ccc(-c2nnc(NCc3nc4ccccc4[nH]3)c3ccccc23)cc1S(=O)(=O)N(C)C	inactive
O=C(CNC(=O)c1ccccc1Br)N/N=C/c1cc(Br)ccc1O	inactive
CC(=O)c1sc(Nc2cccc(C)c2)nc1C	inconclusive: 15.8 µM [activator, single point]
CC(C)N1C/C(=C/c2cccnc2)C(=O)/C(=C/c2cccnc2)C1	inconclusive: 3.16 µM [activator, full curve]
O=[N+]([O-])c1ccccc1S(=O)(=O)Oc1ccc(C(=S)N2CCOCC2)cc1	inconclusive: 15.8 µM [activator, partial curve, poor fit]
S=c1[nH]nc(COc2ccccc2)n1/N=C/C=C/c1ccco1	active: 12.6 µM
C=C(C)C(=O)Oc1ccc(N2C(=O)[C@@H]3C4C=CC(C4)[C@@H]3C2=O)cc1	inconclusive: 25.1 µM [activator, single point]

SMILES	Potency
CN=c1scc(-c2ccco2)n1/N=C/c1ccc(O)c(O)c1	inconclusive: 2.51 µM [activator, full curve, poor fit]
Clc1ccc(-c2ccnc(-n3cccc3)n2)s1	inconclusive: 2.82 µM [activator, full curve, poor fit]
CCCc1ccc(S(=O)(=O)N2CCC(c3nnc(-c4cccc(C)c4)o3)CC2)cc1	inactive
Cc1cccn2c(=O)c3cc(C#N)c(=NC(=O)c4ccco4)n(Cc4ccco4)c3nc12	inactive
Cc1cccc(NC(=O)CSc2nnc(-c3ccco3)c(-c3ccco3)n2)c1	inconclusive: 11.2 µM [activator, partial curve, poor fit]
CCOC(=O)c1c(C)[nH]c(C(=O)N(C)Cc2cccc(OC)c2OC)c1C	inactive
Cc1nc(NC(=O)CSC2=NCCS2)sc1C(=O)N(C)C	inconclusive: 12.6 µM [activator, single point]
O=C(CSc1ccsc1[N+](=O)[O-])Nc1cc(F)ccc1F	inconclusive: 17.8 µM [activator, single point]
O=C(CCSc1ccc(Cl)cc1)c1ccco1	inconclusive: 31.6 µM [activator, single point]
CNc1oc(/C=C/c2ccccc2)nc1C#N	active: 2.82 µM
Cc1ccc(C(=O)Oc2cc(-c3ccccc3)no2)cc1	inactive
CSc1nccc(NC(=O)c2cccc(Br)c2)n1	inconclusive: 14.1 µM [activator, partial curve, poor fit]
Cc1cc(C)nc(NS(=O)(=O)c2ccc(NC(=O)c3ccccc3O)cc2)n1	inactive
Oc1[nH]c2ccccc2c1N=Nc1c(F)c(F)c(F)c(F)c1F	inconclusive: 12.6 µM [activator, single point]
COCCNC(=O)/C(C#N)=C/c1cccc(OCc2ccccc2)c1	inconclusive: 31.6 µM [activator, partial curve, poor fit]
COc1ccc(-c2cccc(NC(=O)c3ccco3)c2)nn1	inconclusive: 6.31 µM [activator, partial curve]
c1ccc(-c2csc3ncnc(NCc4ccccn4)c23)cc1	inactive
CSc1nc(Oc2ccc(Cl)cc2)c2sccc2n1	inconclusive: 2.82 µM [activator, full curve]
Cc1ccc(/C=N/Nc2nc(C(C)(C)C)cs2)o1	inconclusive: 22.4 µM [activator, single point]
CC(=O)c1cccc2c(O)c(C3=Nc4ccccc4C3=O)[nH]c12	inconclusive: 22.4 µM [activator, single point]
CCCCn1c(SCc2c(C)noc2C)nc2cc(S(N)(=O)=O)ccc21	inconclusive: 22.4 µM [activator, single point]
O=C(NCCc1csc2nc(-c3ccccc3F)nn12)c1ccccc1C(F)(F)F	inconclusive: 11.2 µM [activator, single point]
COc1ccc(C(=O)Nc2nnc(-c3cccs3)s2)cc1	inactive
CC(=O)Nc1c(O)c2cccc3c2n(c1=O)CCC3	inactive
COc1ccc([N+](=O)[O-])cc1NC(=O)C(C)OC(=O)c1cccnc1Cl (stereo not drawn)	inconclusive: 12.6 µM [activator, single point]

SMILES	Potency
O=C(/C=C/c1ccccc1O)c1ccco1	inconclusive: 3.98 µM [activator, single point]
COc1ccc(/C=C/C(=O)c2cc(F)ccc2OC(=O)c2ccccc2C)cc1OC	inconclusive: 20 µM [activator, single point]
Cc1ccc(CS(=O)(=O)c2ncc(Cl)c(C(=O)Nc3nc4ccc(C)cc4s3)n2)cc1	inactive
O=C(c1cccc(C(F)(F)F)c1)C1CCCN(Cc2cccn2-c2ncccn2)C1 (stereo not drawn)	inactive
COc1ccc(N2CCN(C(=O)c3cc(-c4cc(OC)ccc4OC)nc4ccccc34)CC2)cc1	inactive
CCn1c(/C=C/c2ccccc2)nc2ccccc2c1=O	active: 3.55 µM
COc1cc(NC(=O)c2c(F)c(F)c(F)c(F)c2F)c(OC)cc1Cl	inconclusive: 17.8 µM [activator, single point]
O=C(CC(=O)c1cc(Cl)ccc1O)c1ccccc1	inconclusive: 11.2 µM [activator, single point]
O=C(C=Cc1ccccc1)c1c[nH]c2ccccc2c1=O	inconclusive: 3.16 µM [activator, partial curve, poor fit]
CC(=O)Nc1ccc(S(=O)(=O)c2ccnc3cc(Cl)ccc23)cc1	inconclusive: 8.91 µM [activator, partial curve]
Oc1ccccc1C1=Nc2nc3ccccc3n2C(c2ccccc2)C1 (stereo not drawn)	inconclusive: 15.8 µM [activator, partial curve, poor fit]
CCOC(=O)C1=C(C)N=C2SCCC(=O)N2C1c1ccc(C(=O)OC)cc1 (stereo not drawn)	inconclusive: 35.5 µM [activator, single point]
O=C(NC(NC(=S)Nc1c(Cl)cc(Cl)cc1Cl)C(Cl)(Cl)Cl)OCc1ccccc1 (stereo not drawn)	inactive
O=c1c2c3c(sc2n(CCN2CCCCC2)c(=O)n1Cc1ccco1)CCCCC3	inactive
CCCCN(CCCC)CCNC(=O)Cn1nc(CC)n2c(cc3sc(C)cc32)c1=O	inactive
S=C1SCN(Cc2ccccc2)CN1Cc1ccccc1	inconclusive: 15.8 µM [activator, single point]
O=C(CCN1C(=O)C2C3C=CC(C4CC34)C2C1=O)Oc1cccc2cccnc12 (stereo not drawn)	inconclusive: 28.2 µM [activator, single point]
O=C(CSc1nc2nc(-c3cccs3)cc(C(F)(F)F)c2c(=O)[nH]1)NCc1ccco1	inconclusive: 22.4 µM [activator, single point]
Cc1ccc(N2N=C(c3ccc(F)cc3)CC2c2ccco2)cc1 (stereo not drawn)	inconclusive: 35.5 µM [activator, single point]
O=C(O)c1cc(N=Cc2c(O)c3ccccc3oc2=O)ccc1O	inactive
N#Cc1c(N)nc(N)nc1Nc1ccc(Br)cc1	active: 12.6 µM
COc1cc(N(C(C)=O)c2ccc(O)c(C(=O)O)c2)c2ncccc2c1	inactive
COC(=O)c1sc(NC(=O)c2ccco2)c(C#N)c1C	inconclusive: 1.58 µM [activator, partial curve, poor fit]

From PubChem BioAssay AID624171 (National Center for Advancing Translational Sciences (NCATS), 2012)
